# This is one part of the list. The full chains were built here from the parent and the listed change. Inactive controls read about 0.05.
# B1: TEV protease; numbered along this chain (parent)
# chain: MGESLFKGPRDYNPISSSICHLTNESDGHTTSLYGIGFGPFIITNKHLFRRNNGTLVVQSLHGVFKVKDTTTLQQHLVDGRDMIIIRMPKDFPPFPQKLKFREPQREERICLVTTNFQTKSMSSMVSDTSCTFPSGDGIFWKHWIQTKDGQCGSPLVSTRDGFIVGIHSASNFTNTNNYFTSVPKNFMELLTNQEAQQWVSGWRLNADSVLWGGHKVFMVKPEEPFQPVKEATQL
# Variants of: B1
# Assay: raw area under fraction-flipped curve 0-4 h after induction (AUC4h, not background-subtracted), DNA-recorder readout of cleavage of the substrate (dimensionless); higher = more cleavage of the substrate by the protease variant
# Settings: temperature: 34 °C; time window: 0-4 h after rhamnose induction
# Experimental: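 In vivo DNA recorder in E. coli TOP10(DE3) ΔrhaA at 34 °C. Each TEVp single-site mutant (parent TEVp 0) is paired with a single-site variant of the 7-mer TEVs (canonical ENLYFQ|S). The substrate sits between flexible linkers in a Bxb1-sfGFP-TEVs-SsrA fusion, so cleavage stabilises Bxb1 and speeds flipping of a recombination array, read by NGS. The value is the raw area under the fraction-flipped curve over 0-4 h after rhamnose induction (AUC4h), with ≥20 reads per time point. It is not background-subtracted; inactive controls average about 0.047.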
# 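Also: Bxb1 expression induced with 0.2% (w/v) L-rhamnose at OD600 near 0.5, cultures sampled hourly, flipped fraction per protease–substrate barcode pair counted by paired-end Illumina sequencing.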
Variant,area with substrate ECLYFQS,area with substrate EDLYFQS,area with substrate EELYFQS,area with substrate EGLYFQS,area with substrate EHLYFQS,area with substrate EILYFQS,area with substrate EKLYFQS,area with substrate EQLYFQS,area with substrate ERLYFQS,area with substrate EVLYFQS,area with substrate EWLYFQS,area with substrate EYLYFQS,area with substrate ELLYFQS,area with substrate EMLYFQS,area with substrate EPLYFQS,area with substrate ESLYFQS,area with substrate EFLYFQS,area with substrate ETLYFQS
MGESLFKGPRDYNPISSSICHLTNESDGHTTSLYGIGFGPFIITNKHLFRRNNGTLVVQSLHGVFGVKDTTTLQQHLVDGRDMIIIRMPKDFPPFPQKLKFREPQREERICLVTTNFQTKSMSSMVSDTSCTFPSGDGIFWKHWIQTKDGQCGSPLVSTRDGFIVGIHSASNFTNTNNYFTSVPKNFMELLTNQEAQQWVSGWRLNADSVLWGGHKVFMVKPEEPFQPVKEATQL [K66G],0.119,0.102,0.139,0.0744,0.11,0.0561,0.103,0.0944,0.0702,0.0903,0.0811,0.0979,,,,,,
MGESLFKGPRDYNPISSSICHLTNESDGHTTSLYGIGFGPFIITNKHLFRRNNGTLVVQSLHGVFKVDDTTTLQQHLVDGRDMIIIRMPKDFPPFPQKLKFREPQREERICLVTTNFQTKSMSSMVSDTSCTFPSGDGIFWKHWIQTKDGQCGSPLVSTRDGFIVGIHSASNFTNTNNYFTSVPKNFMELLTNQEAQQWVSGWRLNADSVLWGGHKVFMVKPEEPFQPVKEATQL [K68D],0.117,0.145,,0.134,,,0.123,,,0.118,,,0.151,0.0649,0.146,0.12,,
MGESLFKGPRDYNPISSSICHLTNESDGHTTSLYGIGFGPFIITNKHLFRRNNGTLVVQSLHGVFKVHDTTTLQQHLVDGRDMIIIRMPKDFPPFPQKLKFREPQREERICLVTTNFQTKSMSSMVSDTSCTFPSGDGIFWKHWIQTKDGQCGSPLVSTRDGFIVGIHSASNFTNTNNYFTSVPKNFMELLTNQEAQQWVSGWRLNADSVLWGGHKVFMVKPEEPFQPVKEATQL [K68H],0.103,0.0636,0.119,,,,,0.112,,,0.113,0.11,0.111,0.115,0.116,0.104,0.0981,
MGESLFKGPRDYNPISSSICHLTNESDGHTTSLYGIGFGPFIITNKHLFRRNNGTLVVQSLHGVFKVKYTTTLQQHLVDGRDMIIIRMPKDFPPFPQKLKFREPQREERICLVTTNFQTKSMSSMVSDTSCTFPSGDGIFWKHWIQTKDGQCGSPLVSTRDGFIVGIHSASNFTNTNNYFTSVPKNFMELLTNQEAQQWVSGWRLNADSVLWGGHKVFMVKPEEPFQPVKEATQL [D69Y],0.113,0.0927,,,,0.102,0.134,0.101,0.09,,,,,,,0.0666,0.0648,
MGESLFKGPRDYNPISSSICHLTNESDGHTTSLYGIGFGPFIITNKHLFRRNNGTLVVQSLHGVHKVKDTTTLQQHLVDGRDMIIIRMPKDFPPFPQKLKFREPQREERICLVTTNFQTKSMSSMVSDTSCTFPSGDGIFWKHWIQTKDGQCGSPLVSTRDGFIVGIHSASNFTNTNNYFTSVPKNFMELLTNQEAQQWVSGWRLNADSVLWGGHKVFMVKPEEPFQPVKEATQL [F65H],0.112,0.165,,0.0801,,0.0987,0.103,0.129,0.0981,,0.0994,0.104,,0.11,0.0756,0.0747,,0.106
MGESLFKGPRDYNPISSSICHLTNESDGHTTSLYGIGFGPFIITNKHLFRRNNGTLVVQSLHGVDKVKDTTTLQQHLVDGRDMIIIRMPKDFPPFPQKLKFREPQREERICLVTTNFQTKSMSSMVSDTSCTFPSGDGIFWKHWIQTKDGQCGSPLVSTRDGFIVGIHSASNFTNTNNYFTSVPKNFMELLTNQEAQQWVSGWRLNADSVLWGGHKVFMVKPEEPFQPVKEATQL [F65D],0.0763,0.0856,,0.0626,0.0729,,0.0548,0.102,0.0778,,,,,,,0.0726,,
MGESLFKGPRDYNPISSSICHLTNESDGHTTSLYGIGFGPFIITNKHLFRRNNGTLVVQSLHGVFKFKDTTTLQQHLVDGRDMIIIRMPKDFPPFPQKLKFREPQREERICLVTTNFQTKSMSSMVSDTSCTFPSGDGIFWKHWIQTKDGQCGSPLVSTRDGFIVGIHSASNFTNTNNYFTSVPKNFMELLTNQEAQQWVSGWRLNADSVLWGGHKVFMVKPEEPFQPVKEATQL [V67F],0.0363,,0.0979,0.0843,,0.0864,,,,0.0834,0.0832,,,0.0802,0.101,0.0834,,0.092
MGESLFKGPRDYNPISSSICHLTNESDGHTTSLYGIGFGPFIITNKHLFRRNNGTLVVQSLHGVFKNKDTTTLQQHLVDGRDMIIIRMPKDFPPFPQKLKFREPQREERICLVTTNFQTKSMSSMVSDTSCTFPSGDGIFWKHWIQTKDGQCGSPLVSTRDGFIVGIHSASNFTNTNNYFTSVPKNFMELLTNQEAQQWVSGWRLNADSVLWGGHKVFMVKPEEPFQPVKEATQL [V67N],0.0731,0.0762,,0.0661,,0.0478,0.0739,,,0.0762,,,,,,0.0778,,0.0537
MGESLFKGPRDYNPISSSICHLTNESDGHTTSLYGIGFGPFIITNKHLFRRNNGTLVVQSLHGVFKKKDTTTLQQHLVDGRDMIIIRMPKDFPPFPQKLKFREPQREERICLVTTNFQTKSMSSMVSDTSCTFPSGDGIFWKHWIQTKDGQCGSPLVSTRDGFIVGIHSASNFTNTNNYFTSVPKNFMELLTNQEAQQWVSGWRLNADSVLWGGHKVFMVKPEEPFQPVKEATQL [V67K],0.0457,,0.063,,,0.0473,0.0695,0.0775,,0.0515,,0.0652,0.0681,,0.0541,0.0736,,0.0814
MGESLFKGPRDYNPISSSICHLTNESDGHTTSLYGIGFGPFIITNKHLFRRNNGTLVVQSLHGVFKPKDTTTLQQHLVDGRDMIIIRMPKDFPPFPQKLKFREPQREERICLVTTNFQTKSMSSMVSDTSCTFPSGDGIFWKHWIQTKDGQCGSPLVSTRDGFIVGIHSASNFTNTNNYFTSVPKNFMELLTNQEAQQWVSGWRLNADSVLWGGHKVFMVKPEEPFQPVKEATQL [V67P],0.0447,0.0543,,0.0642,0.0435,0.0387,0.0385,0.0582,0.0348,0.0424,0.0349,0.0526,0.0383,,0.0474,0.048,0.0424,
